The record followed here is ChEMBL document CHEMBL4888484, “Replenishing the malaria drug discovery pipeline: Screening and hit evaluation of the MMV Hit Generation Library 1 (HGL1) against asexual blood stage Plasmodium falciparum ,using a nano luciferase reporter read-out” (2022).

Among all 150,000 compounds or so, about 540 (0.36%) showed an effect of 50% or more. This is one part of the list.

The test system of this experiment is Plasmodium falciparum. Kind of experiment: Primary screen in NF54 nanoGlo assay, in single point, at 2uM, 72h; a lower Z score goes with more inhibition. The following applies: timepoint 72 hour. In kind it is functional, Erythrocyte.
For `Cc1cccc(N2CCN(C(=O)C3CCCN(S(=O)(=O)c4cccc5nonc45)C3)CC2C)c1` (stereo unspecified), the “% Inhibition” value is on record as 3% and the Z score is on record as -0.48.

With `CCC1CN(Cc2nc3ccc(OC)nc3[nH]2)CC1N1CCOCC1` (stereo unspecified), the “% Inhibition” value is given as -1% and the Z score is on record as 0.08.

In the case of `C=C[C@H](C)NC(=O)N1CCN(c2cccc3[nH]c(=O)[nH]c23)CC1`, the “% Inhibition” value was -14% and the Z score is recorded as 2.87.

For the molecule `O=C(Cc1ccccc1)Nc1c(C(=O)c2ccccc2)oc2ccccc12`, the “% Inhibition” value is 3% and the Z score was -0.5.

Take `Cc1ccc(S(=O)(=O)Nc2ccc(N3CCN(C(=O)c4ccc(Cl)cc4Cl)CC3)nc2)cc1`: the “% Inhibition” value is recorded as -2% and the Z score was determined as 0.2.

In the case of `Cc1ccc(-n2c(N3CCOCC3)nc3cc(C(=O)NCCc4ccccc4)ccc3c2=O)cc1C`, the “% Inhibition” value was -5% and the Z score was determined as 0.86.

`c1ccc(C2(c3noc(CCc4cn[nH]c4)n3)CC2)cc1`: the “% Inhibition” value was -3% and the Z score is recorded as 0.44.

Regarding `CC(C)C(=O)NC[C@H]1CCN(C(=O)c2csc3c2CCCC3)C[C@@H]1O`, the “% Inhibition” value is listed as -6% and the Z score worked out at 1.08.

Turning to `O=C(c1cc(-c2ccccc2)on1)N1CC[C@@]2(CCCN(CC3CC3)C2=O)C1`, the “% Inhibition” value is given as -13% and the Z score was 2.1.

Take `CC1CC(CNC(=O)Nc2ccccc2N(C)C2CCCC2)CCO1` (stereo unspecified): the “% Inhibition” value was -13% and the Z score is on record as 1.21.

As to `CCn1nc(C)c2c1c(=O)n(Cc1ccc(F)cc1)c(=O)n2CC(=O)NC1CCCC1`, the “% Inhibition” value is reported as -20% and the Z score is recorded as 1.97.

Take `Cc1ccc(C)c(NC(=O)CC(=O)NCCCN2CCCC2)c1`: the “% Inhibition” value is listed as -4% and the Z score is on record as 0.44.

With `CC[C@](C)(O)CN1CCN(S(=O)(=O)c2cc(C)sc2C)CC1`, the “% Inhibition” value is reported as 2% and the Z score is given as -0.34.

On to `COc1ccc([C@H](C)NS(C)(=O)=O)cc1F`, for which the “% Inhibition” value is given as -5% and the Z score is on record as 0.98.

Take `c1snnc1CN[C@H]1CCCc2cn[nH]c21`: the “% Inhibition” value was 3% and the Z score is given as -0.65.

For the molecule `Cc1cnn([C@@H](C)CNS(=O)(=O)N2CCCC2)c1`, the “% Inhibition” value is recorded as -3% and the Z score is listed as 0.45.

Take `c1cc(-c2nccnc2N2CCCC2)n2nccc2c1`: the “% Inhibition” value was -5% and the Z score is 0.96.

For the molecule `Cc1cnc(CC2CCN(C(=O)[C@H]3CCOC3)CC2)n1Cc1ccccc1`, the “% Inhibition” value is on record as -9% and the Z score came to 1.28.

On to `COC(=O)c1ncn(Cc2nnc(-c3ccc(Cl)cc3)o2)n1`, for which the “% Inhibition” value is reported as -11% and the Z score is 1.94.

As for `CC(C)(Oc1ccc(C2CC2(Cl)Cl)cc1)C(=O)NC1CCS(=O)(=O)C1` (stereo unspecified), the “% Inhibition” value is on record as -9% and the Z score turned out to be 0.96.

With `O=C(c1ccc(-c2cncnc2)o1)N1CCOCC1`, the “% Inhibition” value is -14% and the Z score was 1.26.

On to `COc1ccccc1NC(=O)Cn1c(=O)n(-c2ccc(C)cc2)c(=O)c2c1cc(C)n2C`, for which the “% Inhibition” value was -4% and the Z score was 0.4.

Turning to `CC(C)CC[C@@H](CCNCc1ccco1)c1ccco1`, the “% Inhibition” value is listed as -10% and the Z score was 1.33.

`Cc1ccc(CCNC(=O)N[C@@H](C)CCc2cccn2C)cn1`: the “% Inhibition” value worked out at 0% and the Z score turned out to be 0.07.

On to `CN(C)C(=O)CC1CCCCC1NC(=O)OC(C)(C)C` (stereo unspecified), for which the “% Inhibition” value is given as -12% and the Z score is listed as 1.23.

For `C=CCn1cccc(C(=O)N(C)[C@@H](C)C2CC2)c1=O`, the “% Inhibition” value is -12% and the Z score was determined as 1.22.

As for `CC(C)N1CCC(NC(=O)C(=O)c2ccc3c(c2)CCC3)CC1`, the “% Inhibition” value is given as 2% and the Z score is given as -0.23.

Regarding `COc1ccc(CN2CC[C@H](c3nc4cccnc4n3C)C2)cc1`, the “% Inhibition” value is on record as -2% and the Z score is reported as 0.21.

With `CC1C(Nc2ccnc(C#N)c2)CC2CCC1N2C(=O)OC(C)(C)C` (stereo unspecified), the “% Inhibition” value is given as -12% and the Z score came out at 1.33.

Consider `Cc1nccc(N2CC[C@H]3[C@H](CCC(=O)N3CCc3cccs3)C2)n1`, for which the “% Inhibition” value is -18% and the Z score is recorded as 3.04.

For `c1cnn(Cc2ncnn2-c2ccc3c(c2)OCCO3)n1`, the “% Inhibition” value is recorded as -12% and the Z score is 2.04.

Take `Cc1ccc(Cl)cc1NC(=O)N(C)CCc1noc(C(=O)NCc2ccc(Cl)cc2)n1`: the “% Inhibition” value was -15% and the Z score stood at 1.35.

For the molecule `CCC1(CNC(=O)c2cccc(OCc3noc(C)n3)c2)CCCC1`, the “% Inhibition” value is listed as -19% and the Z score worked out at 2.02.

`O=c1ccn2c(n1)O[C@H]1[C@H](OC3CCCCO3)[C@@H](COC3CCCCO3)O[C@H]12` (stereo partly specified): the “% Inhibition” value was 35% and the Z score is on record as -4.46.

Turning to `CCOCC(=O)Nc1ccc2c(c1)C(=O)N(C)c1cc(C)ccc1O2`, the “% Inhibition” value turned out to be 3% and the Z score is -0.35.

As to `Cc1cc(C)nc(CN(C)C(=O)c2cn(C)c(C)cc2=O)c1`, the “% Inhibition” value was -12% and the Z score stood at 1.2.

For the molecule `Cc1cccc2c(N3CCS(=O)(=O)CC3)ncnc12`, the “% Inhibition” value is on record as -7% and the Z score is on record as 0.59.

`Cc1ccc(-c2ccc(F)cn2)c2cccnc12`: the “% Inhibition” value is -2% and the Z score amounted to 0.49.

Consider `Cc1nc(N2CCNC(=O)[C@@H]2CC2CCCCC2)ccc1C#N`, for which the “% Inhibition” value was -9% and the Z score is on record as 1.43.

Consider `CN(Cc1ccccc1Cl)C[C@H]1CCCCO1`, for which the “% Inhibition” value is 1% and the Z score is given as -0.15.

With `CCn1cc(C2OCCC2CNCc2csc(COC)n2)cn1` (stereo unspecified), the “% Inhibition” value is listed as -9% and the Z score was found to be 1.31.

On to `COCCn1cncc1CNc1nc(C)nc2ccsc12`, for which the “% Inhibition” value is reported as -8% and the Z score was 0.81.

In the case of `CC(=O)Nc1ccc(C)c(CC(C)(C)C)c1C`, the “% Inhibition” value came to 4% and the Z score was -0.47.
